# Among all 390,000 compounds or so, about 17,000 (4.4%) were called active. Inconclusive means that the source gave no clear call. Such entries were picked first, then a sample of the others. Calls follow the shape of the dose curve; as a rule, active = well fitted inhibition curve with a large enough effect; inconclusive = small, poorly fitted or top-dose-only effect; inactive = no such curve, though single readings can be large or run the other way. Potencies beside an inconclusive call are fits to weak or partial responses and may not hold up.
# Biological target: Lysine-specific demethylase 4A (Homo sapiens) (UniProt O75164)
# Chain of UniProt O75164 (O75164 whole entry, looked up, the tested form may be a part): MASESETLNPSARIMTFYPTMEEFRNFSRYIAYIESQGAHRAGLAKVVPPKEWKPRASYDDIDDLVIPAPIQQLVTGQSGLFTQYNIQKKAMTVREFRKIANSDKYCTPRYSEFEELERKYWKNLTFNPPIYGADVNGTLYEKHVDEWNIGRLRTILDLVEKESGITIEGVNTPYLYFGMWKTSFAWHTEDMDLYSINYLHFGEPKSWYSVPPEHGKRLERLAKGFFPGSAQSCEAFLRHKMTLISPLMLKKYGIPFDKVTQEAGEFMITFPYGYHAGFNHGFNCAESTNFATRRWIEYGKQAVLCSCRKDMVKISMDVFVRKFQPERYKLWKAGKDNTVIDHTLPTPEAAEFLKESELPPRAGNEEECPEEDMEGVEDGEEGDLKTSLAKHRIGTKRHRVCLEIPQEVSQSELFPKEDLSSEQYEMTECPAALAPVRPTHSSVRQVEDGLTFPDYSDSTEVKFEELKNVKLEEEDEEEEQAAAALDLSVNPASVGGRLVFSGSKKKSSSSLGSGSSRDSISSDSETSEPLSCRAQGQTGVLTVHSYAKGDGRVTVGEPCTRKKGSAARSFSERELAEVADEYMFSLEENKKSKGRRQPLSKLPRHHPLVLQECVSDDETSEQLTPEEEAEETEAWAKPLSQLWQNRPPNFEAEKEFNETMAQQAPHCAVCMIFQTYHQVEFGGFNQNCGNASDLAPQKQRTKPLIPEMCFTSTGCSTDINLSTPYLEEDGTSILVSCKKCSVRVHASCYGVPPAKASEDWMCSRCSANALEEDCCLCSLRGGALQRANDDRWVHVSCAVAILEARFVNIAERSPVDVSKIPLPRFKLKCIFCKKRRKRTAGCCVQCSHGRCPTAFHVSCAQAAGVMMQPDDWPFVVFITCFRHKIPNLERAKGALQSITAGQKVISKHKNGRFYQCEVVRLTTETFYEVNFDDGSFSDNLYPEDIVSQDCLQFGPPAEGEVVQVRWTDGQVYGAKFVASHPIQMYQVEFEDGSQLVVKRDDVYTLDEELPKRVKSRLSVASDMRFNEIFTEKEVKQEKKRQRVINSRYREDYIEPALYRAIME
# Assay: qHTS Assay for Inhibitors of JMJD2A-Tudor Domain; also: nearly all actives have a fitted effect of over 50% in size
# Conditions: AlphaScreen JMJD2A-Tudor / H3K4me3 peptide binding; series mostly up to 114 µM
# Potency is read from the fitted curve at half-maximal effect; tags tell the direction and shape of the fitted curve.
row,SMILES,Potency
1,C#CCOCCOCCOCCNc1nc(N2CCN(C(=O)Cn3cc(CCCN=C(N)N)nn3)CC2)nc(N2CCN(C(=O)[C@H]([C@@H](C)CC)n3cc(CCC(=O)O)nn3)CC2)n1,inactive
2,CC(C)(C)NC(=O)C(c1ccc(-c2ccccc2)cc1)N(C[C@H]1CC[C@@H]([C@@H]2CC[C@H](CO)O2)O1)C(=O)c1ccc(C(C)(C)C)cc1 (stereo partly specified),"inconclusive: 35.5 µM [inhibitor, partial curve]"
3,COc1nsnc1NS(=O)(=O)c1ccc(NC(=S)NC(=O)c2cccnc2)cc1,active: 11.2 µM
4,CCCn1c(=O)c2ccccc2n2c(SCc3cc(=O)oc4ccc5ccccc5c34)nnc12,"inconclusive: 28.2 µM [inhibitor, partial curve]"
5,NN1C(=O)/C(=C2/Sc3ccccc3N2CCCS(=O)(=O)O)SC1=S,"inconclusive: 79.4 µM [inhibitor, single point]"
6,O=C(ONc1ccc(N=NC(=O)c2ccccc2O)cc1)c1ccccc1,"inconclusive: 14.1 µM [inhibitor, full curve]"
7,COc1ccc(OC)c(CNC(=O)c2ccc3c(c2)c(C)c(C)n3Cc2ccc(Cl)cc2)c1,"inconclusive: 12.6 µM [inhibitor, full curve]"
8,O=C1NCN(c2ccccc2)C12CCN(CCCC(c1ccc(F)cc1)c1ccc(F)cc1)CC2,active: 39.8 µM
9,CCOc1ccc(NC(=S)N(CCN2CCOCC2)Cc2ccc3c(c2)CCCN3CC)cc1,active: 35.5 µM
10,COc1ccc(CN2CCc3ccccc3C2)cc1Br,active: 28.2 µM
11,COc1cc([N+](=O)[O-])ccc1NC(=O)CC1SC(=Nc2ccc(F)cc2)N(CCC2=CCCCC2)C1=O (stereo unspecified),inactive
12,Cc1ccc(CSc2ncnc3c2cnn3-c2ccc(C)cc2)cc1,inactive
13,O=C(O)CSc1nc2sc3c(c2c(=O)n1-c1ccccc1)CCC3,"inconclusive: 35.5 µM [inhibitor, partial curve]"
14,COc1cc(/C=C/C(=O)O)cc(S(=O)(=O)Nc2ccc3nc(C)sc3c2)c1OC,inactive
15,c1coc(Cn2c(SCc3nc4ccccc4[nH]3)nnc2-c2cnccn2)c1,"inconclusive: 100 µM [inhibitor, single point]"
16,CC(C)n1c(SCC(=O)Nc2nncs2)nnc1-c1ccco1,active: 56.2 µM
17,Cc1cc(C)c(OCCCNCc2ccccc2)c(Br)c1,active: 25.1 µM
18,O=C(O)C(=O)/C(=C\c1ccsc1)c1ccc2ccccc2n1,active: 89.1 µM
19,CN(C)CCCN(C(=O)c1ccc(C(=O)c2ccccc2)cc1)c1nc2cc3c(cc2s1)OCCO3,active: 50.1 µM
20,CCOC(=O)c1cccc(NC(=O)Nc2ccc3c(c2)C(=O)OC3)c1,inactive
21,CCCCCc1cc(=O)oc2c(C(CCN3CCCC3)c3cc(OC)c(OC)c(OC)c3)c(OC)cc(OC)c12 (stereo unspecified),"inconclusive: 44.7 µM [inhibitor, full curve]"
22,Cc1ccccc1C(=O)N1CC(=O)Nc2ccc(Cl)cc2C1c1ccccc1 (stereo unspecified),inactive
23,COc1cc([N+](=O)[O-])ccc1NC(=S)Nc1cccc(C(=O)O)c1,inactive

row,SMILES,Potency
1,CCC(=O)NC(c1cc(Cl)c2cccnc2c1O)C(C)C (stereo unspecified),"inconclusive: 89.1 µM [inhibitor, partial curve]"
2,Cc1cc(C)cc(NC(=S)N2CCC(c3nc4ccccc4s3)CC2)c1,"inconclusive: 31.6 µM [inhibitor, full curve, poor fit]"
3,O=S1(=O)CC/C(=N\Nc2ccccc2)c2ccsc21,"inconclusive: 56.2 µM [inhibitor, partial curve]"
4,O=C(c1cccs1)N1CCN(c2nnc(-c3ccccc3)c3ccccc23)CC1,inactive
5,CCN(CC)c1ccc(/C=N/NC(=O)CNC(=O)C2COc3ccccc3O2)c(O)c1 (stereo unspecified),active: 50.1 µM
6,Clc1nc(Cl)nc(N(c2ccccc2)c2ccccc2)n1,active: 25.1 µM
7,CC(C)(C)OC(=O)N1CCC[C@H]1C(=O)Nc1ccc(C#N)cc1,"inconclusive: 31.6 µM [inhibitor, partial curve]"
8,CCOc1ccc(NS(=O)(=O)c2ccc(C(=O)N(C)C)s2)cc1,inactive
9,O=C1CN(C(=O)N[C@@H](Cc2ccccc2)C(=O)N[C@@H](C(=O)O)c2ccccc2)c2ccccc2N1,active: 31.6 µM
10,CN(C)C(=O)c1cc(C(=O)c2ccc(F)cc2C(F)(F)F)c[nH]1,inactive
11,C#CCOCCOCCOCCNc1nc(N2CCN(C(=O)[C@H](CC(N)=O)n3cc([C@@H](N)C(C)C)nn3)CC2)nc(N2CCN(C(=O)[C@H](CC(N)=O)n3cc([C@@H](N)C(C)C)nn3)CC2)n1,active: 25.1 µM
12,Cc1cccc(-c2noc(-c3cccnc3NCc3ccc(Cl)cc3)n2)c1,"inconclusive: 56.2 µM [inhibitor, partial curve]"
13,CCOP(=O)(OCC)/C(C#N)=C/c1cc(OC)ccc1OC,inactive
14,COCCCn1c(SCC(=O)NC2CCCC2)nnc1-c1cccs1,inactive
15,Cc1ccccc1C(=O)NC(=S)Nc1sc2c(c1C#N)CCC(C)C2 (stereo unspecified),"inconclusive: 56.2 µM [inhibitor, partial curve]"
16,O=C(OC(C(=O)NCc1ccc2c(c1)OCO2)c1ccccc1F)c1ccco1 (stereo unspecified),"inconclusive: 39.8 µM [inhibitor, partial curve, poor fit]"
17,COc1ccc(S(=O)(=O)Nc2ccc3oc4c(c3c2)CCCC4)cc1,inactive
18,COC(=O)c1ccccc1S(=O)(=O)N(CCCN1CCOCC1)Cc1cccs1,active: 7.94 µM
19,Cc1c(NC(=S)N/N=C/C=C/c2ccccc2)c(=O)n(-c2ccccc2)n1C,"inconclusive: 50.1 µM [inhibitor, partial curve]"
20,Cc1c(C(=O)N2CCN(c3ccccc3)CC2)oc2c(F)cccc12,inactive
21,O=C1CCCN1CCCNc1ccc2nnc(CCC(=O)N3CCN(c4ccc(F)cc4)CC3)n2n1,"inconclusive: 14.1 µM [inhibitor, single point]"
22,COc1ccc(/C=C2\SC(N3CCc4ccccc4C3)=NC2=O)cc1,"inconclusive: 12.6 µM [inhibitor, partial curve]"
23,COc1cccc(CNC(=O)Cn2nc(C)c([N+](=O)[O-])c2C)c1,inactive
